Data published in paper PMC12136788.
This is one part of the list.

T1: UNK ZnF1-3 (human, UniProt Q9C0B0 31-174)
T1 sequence: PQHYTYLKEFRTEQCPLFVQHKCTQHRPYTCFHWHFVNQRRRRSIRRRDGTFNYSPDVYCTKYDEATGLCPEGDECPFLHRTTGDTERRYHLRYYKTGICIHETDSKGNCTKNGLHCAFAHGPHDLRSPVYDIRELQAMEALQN

B1: chr5:122941739:122941740:-_ENSMUSG00000029467_ENSMUST00000031423|mus_hu|FALSE|FALSE (ssRNA)
RNA: GGGAGUUCUACAGUCCGACGAUCUCUUUCCUGCCAUACACCCACAAUUGCAUUGGCUACUAAUAUGAGUAAAAUUACAAAAGGUUCUACAAAGGCUGUAAUUGUUUCUUCACCUUCUUCAAACCAAGCCAAAACAAAAGAUAUCAACAGAGGAUUGAGCAUCA
B2: chr10:120833061:120833062:-_ENSG00000107581_ENST00000369144|perfect_dup|motif|central (ssRNA)
RNA: GGGAGUUCUACAGUCCGACGAUCCUGAGAUUCUUCUUUAGCAGCUUCAGUUUUUUCCUCUGCCAUUUUCAAAUAUGCCCGGACAACAUCCUCCAGAGAUUUUAUGUUCACCUGUUGACAAAUGUUCUUAUACUGGUAUAACCCCAACAGAGGAUUGAGCAUCA
B3: chr12:121861850:121861851:+_ENSG00000170633_ENST00000361234|hu_mus|FALSE|FALSE (ssRNA)
RNA: GGGAGUUCUACAGUCCGACGAUCUAGCAACAAUGUUGAAACUUACAUUCAUUAAAUAUUAGCAUUUAAAAUAUACAUGGCUAAUCGAGUGAACAUUCAGAGCAGUUACGGCUCAGGAUAGUCCACACUACCCAGUCAUGACAGCAACAGAGGAUUGAGCAUCA
B4: 8415798_8415918_2908_CDS_ENSG00000133026_ENST00000269243|human|control|control (ssRNA)
RNA: GGGAGUUCUACAGUCCGACGAUCAUUUUGGAGGAUUUGGUUUCUUUCUUCUUCUUCUUCAACCCUAGACUCCAAGUCAUGUAGAAUCUCUUCUAAUUCCUGCUUUUUAGCAGCAAGUCUUGCCCUCAUCUCUUCUGCUUCAGCCAACAGAGGAUUGAGCAUCA
B5: chr8:122087627:122087628:-_ENSMUSG00000034189_ENSMUST00000036049|mus_hu|FALSE|FALSE (ssRNA)
RNA: GGGAGUUCUACAGUCCGACGAUCUAGUUACAAAAUAAUACUUUUCAGUAGUCUUUCUUGAUGCACAUUUAAAAACCAGCACAACUCCUCUAGUGAAAUGGUCAAUUUCCCUUAAAAAACAACAUCUGAAAUUAUAAGACCUGACAACAGAGGAUUGAGCAUCA
B6: 63459802_63460011_11422_CDS_ENSMUSG00000030451_ENSMUST00000076226|mouse|control|control (ssRNA)
RNA: GGGAGUUCUACAGUCCGACGAUCGCUGGCAGCUAGGGCGCUCAGCUGAGCACACGCAGCCAGAGAGGCAGCAAGGCGAGGGACGAUGCUUCUGUUGGAGGUGAGAUUGAGUCGGAAGUCCAAGAGACAGGUCACCAGGUCCAUCAACAGAGGAUUGAGCAUCA
B7: chr1:53517203:53517204:+_ENSG00000116171_ENST00000408941|hu_mus|motif|central (ssRNA)
RNA: GGGAGUUCUACAGUCCGACGAUCUCAGGAAGAGCUGUUUUAAUUUUCUUUUUAAAUCUUCCAAAAGCAUAUUUUUAUCCCAAACCGGAAUUAUAACAAAUAGCAUUAGAAUUAGAAAAACUUGGAAGAAAGAUAAAUGCAGACCAACAGAGGAUUGAGCAUCA
B8: chr9:95013113:95013114:-_ENSG00000196305_ENST00000443024|hu_hu|hu_hu_hu_mus_False|98_98 (ssRNA)
RNA: GGGAGUUCUACAGUCCGACGAUCCUCAGUCAGAAAGGGUGUGUAGGGGGCCAUCAGUCUGCACAGAGAAAGCAGGACACUGAACAGUGUCUCCAGAGCCAUGACACAGUCUUCCACCCCACUCUCACCCUUUAACCUCCUCCUCAACAGAGGAUUGAGCAUCA
B9: chr14:31337589:31337590:+_ENSMUSG00000021962_ENSMUST00000022535|mus_mus|FALSE|FALSE (ssRNA)
RNA: GGGAGUUCUACAGUCCGACGAUCAAUGACCUGUAUCAUAGAAACGAAGACACUUUUCAUUCAAAGAAUAUCUCAAAAUUACUAUUGCUGAAAUAAUCAAAUUCUACAUUAAAAUAUUACCAAACACCAUUACAUGCCAUAAAACAACAGAGGAUUGAGCAUCA
B10: 25965724_25965844_3665_3pUTR_ENSG00000143970_ENST00000336112|human|control|control (ssRNA)
RNA: GGGAGUUCUACAGUCCGACGAUCUUUUCAAGGCUUCAGUGGGGCUGCUUAGACAAAAACGAUCUUCAGGGUUUACAGAAUGGGUCCUCCUAAAGCUCUCUGAGCCCCGGCCGUAGGUAGAAAUAUUCAGUAAGUAGUGCCCUGCAACAGAGGAUUGAGCAUCA
B11: chrX:118797523:118797524:-_ENSG00000125354_ENST00000360156|hu_hu|FALSE|FALSE (ssRNA)
RNA: GGGAGUUCUACAGUCCGACGAUCCACGAUAGGCUUGUAGCUGUCCUCUUUGUUGAUCUGGUCCCCAAAGCCAACUGUGCUAACGAUCGUGAGCUUUAGCCUCACGUUGCUCUCUUGGAGGUCAUAGGUAUUAGACUGGAGCUGCAACAGAGGAUUGAGCAUCA
B12: chr5:128440902:128440903:+_ENSG00000066583_ENST00000173527|hu_mus|hu_hu_hu_mus_True|48_88 (ssRNA)
RNA: GGGAGUUCUACAGUCCGACGAUCUUGAACGGUGCUGCCAAGUCCUUUAGGGUAUUGUUCCGUUAUGAUAACUGGAAUCCCUAAGAUCCGGGCCCCUUGCAACAGUCUCUGUCCCACACUAAUGAUGUCCCCAAAGUAUUUGAUCAACAGAGGAUUGAGCAUCA
B13: chr11:118888195:118888196:-_ENSG00000118181_ENST00000527673|hu_hu|FALSE|FALSE (ssRNA)
RNA: GGGAGUUCUACAGUCCGACGAUCUUUAUAGUUGGGAACUUCCUUACAGAGUUUAUCAUAGGUAGCUUUGUCAAACAAGACUAAGUUAUUGAGCUUGUCCCGAACUUUGCCUUUGGACCACUUCUUCUUUUUGGCCUUGCCCCCCAACAGAGGAUUGAGCAUCA
B14: chr12:48362563:48362564:+_ENSG00000134291_ENST00000256686|hu_hu|hu_hu_hu_mus_False|28_28 (ssRNA)
RNA: GGGAGUUCUACAGUCCGACGAUCUCCGUCAAGCCCUUCGAUAGACCCUUGCGGGGGAAACUGUAAUCACUUUGUAUGGGGAAGGAAAAGAAACGCCAAAAACUUUCUUUCUUUCUUGGGUGGGGUGAGGCGGGAGGGGGAGGUCAACAGAGGAUUGAGCAUCA
B15: chr2:100011259:100011260:+_ENSG00000158417_ENST00000289371|hu_mus|FALSE|FALSE (ssRNA)
RNA: GGGAGUUCUACAGUCCGACGAUCGUAGUCCUGUCUGUAUUUUGUAAAGGCAUCAAAUAAGUGAUAAAUAAUUUCUGCACUAAAGAUUCUAACUCCCAAACUAUCAGCCAUCUCUUGUGCGUCCCGUUCAAUUCUUACAUCAAACAACAGAGGAUUGAGCAUCA
B16: chr9:100896081:100896082:-_ENSMUSG00000032527_ENSMUST00000035116|mus_hu|FALSE|FALSE (ssRNA)
RNA: GGGAGUUCUACAGUCCGACGAUCGUAGUUGAAGAAAUCCCGGAGAUUACACAAGGCAUCAACAUCAUUUUCAAAAGCUCUGUGGGCCACACCUGACAUGGUGGUGUGGGUCUUGGCACCACCGAGCUCCUCCUGGGUAACAUCCAACAGAGGAUUGAGCAUCA
B17: chr17:56167648:56167649:+_ENSG00000264364_ENST00000579991|hu_hu|motif|central (ssRNA)
RNA: GGGAGUUCUACAGUCCGACGAUCGAUAUCCCCAGAGGCUUUUAGCAUAAAAGCCCACUUAGAACUAACUGUGCCCCCGGCCGGCCCAUACACCCUAGAGAUUCCACACUGUCCUGCCCCCUCCCUCCCUUCUACCCCAAACCCCAACAGAGGAUUGAGCAUCA
B18: chr13:100193941:100193942:-_ENSMUSG00000052727_ENSMUST00000064762|mus_hu|motif|central (ssRNA)
RNA: GGGAGUUCUACAGUCCGACGAUCAUUUUCUCUAAACUCUACAUGAACCGUAGGAGUUGAGAAUUCAUUUGUUUUCAAUGUACGGUUUCUUUUAUUUUUUUUUUCCAGAAAAGAAAAUCCCAAAGCAAAUUUGUGCUAGGGUUCCAACAGAGGAUUGAGCAUCA
B19: chr10:24872911:24872912:-_ENSG00000107863_ENST00000396432|hu_hu|motif|central (ssRNA)
RNA: GGGAGUUCUACAGUCCGACGAUCUAAUGAUAUCUGUUACCAAUAAAACGCAUUCGUUUAUUCAAUGUAAGUAAGUUAUCGGAUUUUAACAAUAUGGCACCCUAAAAACCAACUGUAUUUUUAUGAUGAGGCACUUUUGUUAGUCAACAGAGGAUUGAGCAUCA
B20: chr3:47719781:47719782:-_ENSG00000173473_ENST00000254480|hu_hu|FALSE|FALSE (ssRNA)
RNA: GGGAGUUCUACAGUCCGACGAUCAUGGACCCUCAUCACAGCACACACAUCUCCAGUCAAGUUCCUCCGACAAGCAGUGCUAGUUAAAUACUCUUGGGGGUUUAGACGAUACGUGUCAAUCAUAAAAUUUCGAUAUGCCAAGUACAACAGAGGAUUGAGCAUCA
B21: chr4:57314706:57314707:+_ENSG00000128050_ENST00000264221|hu_mus|motif|central (ssRNA)
RNA: GGGAGUUCUACAGUCCGACGAUCCAGAAUUUCAAAAAUAGCUUGUGUGGCAUGACUCAUGAUGUCCACUUCAGUCUGCCCGGUAACAAGGCCAGCAAAACAGAAUUUUGCAGCAAUGAGUUGCUCCUCAGACCACUGUGGAUCCAACAGAGGAUUGAGCAUCA
B22: chr14:89307221:89307222:+_ENSG00000165533_ENST00000346301|hu_mus|hu_hu_hu_mus_False|78_98 (ssRNA)
RNA: GGGAGUUCUACAGUCCGACGAUCUCCUGUUUGGUUAGUUCCAGGGAGCUUCAAAGACGUUCCAGGGCGUGGGACCUGAGCAAUAGCAUUUUCAUCCAGGAUCAUUUCAGCAAUUCCUUCCUGGUCCACAUCAAUUUCAUCUAUCAACAGAGGAUUGAGCAUCA

molecular target: T1, UNK ZnF1-3; experiment: nsRBNS (natural sequence RNA bind-n-seq); RBNS binding buffer (assumed for nsRBNS): 25 mM Tris pH 7.5, 150 mM KCl, 3 mM MgCl2, 0.01% Triton X-100, 500 ug/ml BSA, 20 U/ml SUPERase-In, 4 C; UNK is unkempt and MSI1 is Musashi-1; names of the RNAs are library labels; protein concentration not given here; high values mean tight binding

In order of falling binding signal:
1. B15  2.43 enrichment R
2. B7  2.22 enrichment R
3. B20  1.89 enrichment R
4. B10  1.44 enrichment R
5. B17  1.4 enrichment R
6. B6  1.31 enrichment R
7. B1  1.23 enrichment R
8. B5  1.2 enrichment R
9. B14  1.17 enrichment R
10. B16  0.962 enrichment R
11. B21  0.96 enrichment R
12. B8  0.954 enrichment R
13. B22  0.919 enrichment R
14. B9  0.872 enrichment R
15. B2  0.789 enrichment R
16. B11  0.737 enrichment R
17. B12  0.704 enrichment R
18. B13  0.642 enrichment R
19. B18  0.605 enrichment R
20. B19  0.604 enrichment R
21. B3  0.586 enrichment R
22. B4  0.424 enrichment R
